Results reported in ChEMBL document CHEMBL4888484, “Replenishing the malaria drug discovery pipeline: Screening and hit evaluation of the MMV Hit Generation Library 1 (HGL1) against asexual blood stage Plasmodium falciparum ,using a nano luciferase reporter read-out” (2022).
The whole screen tested about 150,000 compounds, of which about 540 (0.36%) showed an effect of 50% or more. This is one part of the list.

system: Plasmodium falciparum; assay: Primary screen in NF54 nanoGlo assay, in single point, at 2uM, 72h; a lower Z score goes with more inhibition; assay type: functional, Erythrocyte; details: timepoint 72 hour

Compared with `C[C@H](Oc1ccc(F)cc1)c1nnc(C2(c3ccc(Cl)cc3)CCOCC2)o1`, `CCOc1ccc(C(=O)N/C(=N/c2ccc([C@@H](C)CC)cc2)NCc2ccncc2)cc1` is lower in “% Inhibition” value: 1% for the first, -12% for the second.

Compared with `Cc1cc(NC(=O)[C@H](C)Nc2ccc3c(c2)OCO3)on1`, `Cc1ccc2nc(NC(=O)Cc3c(C)nn(C)c3C)sc2c1` is lower in “% Inhibition” value: -1% for the first, -7% for the second.

Going from `CCc1nc(OCC(=O)NCCOC)c2c(-c3ccc(F)cc3)noc2n1` to `CCc1ccc(C(=O)Nc2cnc(-n3ccnc3)nc2)cc1`, the “% Inhibition” value rises from -3% to 38%.

Going from `CC(C)(C)OCCON=C(N)c1cccs1` to `CCN1CCN(CC#CCOc2cccc(OC)c2)CC1`, the “% Inhibition” value falls from 34% to -5%.

First: CC(C)C(=O)N1CCc2ccc(OCc3nc(C(=O)N(C)Cc4ccccc4)cs3)cc2[C@@H]1c1ccccc1
Second: CN(CCCNC(=O)[C@H]1CCCN(S(=O)(=O)c2ccc3c(ccn3C)c2)C1)Cc1ccccc1
The “% Inhibition” value of the first is higher: 1% for the first, -13% for the second.

Going from `c1c[nH]c(CNc2ccc3scnc3c2)n1` to `CCc1nccc(CN2CCC[C@H](CNC(=O)c3ccncc3)C2)n1`, the “% Inhibition” value falls from -2% to -12%.

First: CNC(=O)c1nc(-c2ccccc2)n2c1CCN(C(=O)Cn1ccnc1)CC2
Second: Cn1ccc(C(=O)N2CCC[C@@]3(CCC(=O)N(Cc4cccnc4)C3)C2)cc1=O
The “% Inhibition” value of the first is higher: -9% for the first, -16% for the second.

First: CCO[C@@H](C)C(=O)N1CCN(CC(C)(C)O)CC1
Second: Cc1ccnc(CNC(=O)N2CCOCC(F)(F)C2)c1
The “% Inhibition” value of the first is lower: -5% for the first, 17% for the second.

Compared with `O=C(N[C@@H]1CCCC[C@H]1OCc1ccccc1)N1C[C@@H]2CCS(=O)(=O)[C@@H]2C1`, `O=C(Cc1c[nH]c2cc(Cl)ccc12)NC1CCN(C[C@H]2CCOC2)CC1` is lower in “% Inhibition” value: 34% for the first, -11% for the second.

Compared with `CCc1nc(C(C)NC(=O)C2CCCO2)cs1` (stereo unspecified), `CNc1cc([C@H]2C[C@@H](NC(=O)c3cc(C#N)cn3C)C2)nc(N)n1` is lower in “% Inhibition” value: -1% for the first, -5% for the second.

Compared with `Cc1cc(F)ccc1NC(=O)CCn1c(=O)cc(C(F)(F)F)c2c(C)n(C)nc21`, `Cc1nc2ccccc2c2nc(NC(=O)c3ccc4nsnc4c3)nn12` is lower in “% Inhibition” value: -5% for the first, -16% for the second.

For `COc1ccc(CN2[C@@H]3CC[C@H]2CN(C)C(=O)C3)cc1Cn1cccn1`, the “% Inhibition” value was -1%.

Compared with `C[C@H](Oc1ccc(F)cc1)c1nnc(C2(c3ccc(Cl)cc3)CCOCC2)o1`, `CCOc1ccc(C(=O)N/C(=N/c2ccc([C@@H](C)CC)cc2)NCc2ccncc2)cc1` is higher in Z score: -0.12 for the first, 2.05 for the second.

First: Cc1cc(NC(=O)[C@H](C)Nc2ccc3c(c2)OCO3)on1
Second: Cc1ccc2nc(NC(=O)Cc3c(C)nn(C)c3C)sc2c1
The Z score of the first is lower: 0.14 for the first, 1.19 for the second.

Compared with `CCc1nc(OCC(=O)NCCOC)c2c(-c3ccc(F)cc3)noc2n1`, `CCc1ccc(C(=O)Nc2cnc(-n3ccnc3)nc2)cc1` is lower in Z score: 0.49 for the first, -8.38 for the second.

Compared with `CC(C)(C)OCCON=C(N)c1cccs1`, `CCN1CCN(CC#CCOc2cccc(OC)c2)CC1` is higher in Z score: -4.96 for the first, 0.56 for the second.

Going from `CC(C)C(=O)N1CCc2ccc(OCc3nc(C(=O)N(C)Cc4ccccc4)cs3)cc2[C@@H]1c1ccccc1` to `CN(CCCNC(=O)[C@H]1CCCN(S(=O)(=O)c2ccc3c(ccn3C)c2)C1)Cc1ccccc1`, the Z score rises from -0.07 to 2.36.

Going from `c1c[nH]c(CNc2ccc3scnc3c2)n1` to `CCc1nccc(CN2CCC[C@H](CNC(=O)c3ccncc3)C2)n1`, the Z score rises from 0.2 to 1.5.

Compared with `CNC(=O)c1nc(-c2ccccc2)n2c1CCN(C(=O)Cn1ccnc1)CC2`, `Cn1ccc(C(=O)N2CCC[C@@]3(CCC(=O)N(Cc4cccnc4)C3)C2)cc1=O` is higher in Z score: 1.21 for the first, 1.82 for the second.

First: CCO[C@@H](C)C(=O)N1CCN(CC(C)(C)O)CC1
Second: Cc1ccnc(CNC(=O)N2CCOCC(F)(F)C2)c1
The Z score of the first is higher: 0.49 for the first, -2.13 for the second.

Compared with `O=C(N[C@@H]1CCCC[C@H]1OCc1ccccc1)N1C[C@@H]2CCS(=O)(=O)[C@@H]2C1`, `O=C(Cc1c[nH]c2cc(Cl)ccc12)NC1CCN(C[C@H]2CCOC2)CC1` is higher in Z score: -3.87 for the first, 1.57 for the second.

First: CCc1nc(C(C)NC(=O)C2CCCO2)cs1 (stereo unspecified)
Second: CNc1cc([C@H]2C[C@@H](NC(=O)c3cc(C#N)cn3C)C2)nc(N)n1
The Z score of the first is lower: 0.11 for the first, 0.46 for the second.

Compared with `Cc1cc(F)ccc1NC(=O)CCn1c(=O)cc(C(F)(F)F)c2c(C)n(C)nc21`, `Cc1nc2ccccc2c2nc(NC(=O)c3ccc4nsnc4c3)nn12` is higher in Z score: 0.61 for the first, 2.1 for the second.

`COc1ccc(CN2[C@@H]3CC[C@H]2CN(C)C(=O)C3)cc1Cn1cccn1` was tested, and the Z score was 0.13.
